Experimental data from the supplement of paper PMC10126150.
Sequences with one replicate were seen in a single cluster, so their values are uncertain.

Test system: ATP
Experiment: switch fluorescence ratio, 500 uM ATP over buffer (Cy3 cluster intensity, sum of 5 cycles each) (fold (ratio)); higher = stronger signal-on switching upon ATP binding; sequences stand for … in TCGTCGGCAGCGTCAGATGTGTATAAGAGACAGTTTTTTTTTTTTTTTTTTTTTTTTT…TC
Details: aptamer strand: ATP DNA aptamer (quencher-CACCTGGGGGAGTATTGCGGAGGAAGG + anchor), 100 nM annealed; ATP concentration: 500 uM; one replicate
Outline: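 Clusters carrying Cy3-labelled switching strands on a modified Illumina MiSeq flow-cell were annealed to 100 nM quencher-labelled ATP aptamer and imaged in selection buffer. They were imaged again after 15 min with 500 uM ATP at 22 °C, over five buffer/ATP cycles with NaOH stripping and re-annealing in between. For each cluster, the fluorescence ratio is the summed Cy3 intensity of the target cycles divided by that of the buffer cycles, averaged per switch-domain sequence. Clusters outside 100-1000 RFU were left out.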
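Note: ATP exposure 15 min at 22 °C before imaging.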

| Sequence | switch fluorescence ratio |
| --- | --- |
| TATGGGGCGG | 1.07 |
| TATGGGCTAG | 0.997 |
| AGGTGTGGTG | 0.879 |
| TCGCTGGGCT | 0.983 |
| GGGGCCATGT | 0.995 |
| CAGAGAGGG | 0.932 |
| TTCTTGAA | 1.02 |
| TAGGGAGGAG | 0.997 |
| CGGTTGACCG | 1.01 |
| ATGTGTAGGT | 1.02 |
| CTCATCTGC | 1.12 |
| CCCTAGAGGT | 1.91 |
| TCATACTCAG | 1.03 |
| GGGTAGACCT | 1.16 |
| AAATGGCTCG | 1.04 |
| ACACTAAGTC | 1.07 |
| GACACGTGAG | 1 |
| TTAAGATGAC | 1.01 |
| TCTATAGAG | 0.979 |
| CATCTAGGCT | 0.996 |
| CTGATTACC | 1.04 |
| AACTAGTTAG | 1.02 |

| Sequence | switch fluorescence ratio |
| --- | --- |
| CTCAGGGATA | 1.18 |
| TGGAAGAGCA | 0.979 |
| GAATACGATC | 1.08 |
| CTCGTTTTGT | 1.03 |
| TCAAGGTGCT | 1.02 |
| CAATCTTTGG | 0.992 |
| CGCTCTATCG | 0.954 |
| CAAGGTATCA | 1.01 |
| GTTTGACTAT | 0.974 |
| GTCAAATTTC | 1.01 |
| ATTGGCCGGG | 0.987 |
| AAATGAAGAA | 1.02 |
| CGACAGTTAG | 1 |
| CAGGCGTCC | 1.07 |
| GAAAGCGGCC | 2.59 |
| ATAGGGCCGT | 0.99 |
| TTTCTACTCA | 0.981 |
| TAACATCTCA | 1.01 |
| AATACAAGT | 1 |
| CAGTCGACTC | 1 |
| TTGGCAGTAG | 1.08 |
| GCTTAATTAC | 1.09 |

| Sequence | switch fluorescence ratio |
| --- | --- |
| GGGCTGCATA | 0.986 |
| TGCAGGTTTA | 0.976 |
| CCTGGGCAAC | 4.27 |
| CTGCACTTTT | 0.962 |
| GAAAGGAGGA | 1.02 |
| GGTAGAAAAC | 1.1 |
| CGAGTTCCCG | 0.983 |
| GGCTTTGATT | 0.992 |
| CATTTATGCT | 1.01 |
| ATTCTGTGTC | 1.07 |
| CAAGATCCAG | 0.991 |
| GGTCGCTAAG | 0.983 |
| GTTTTAGCC | 0.993 |
| ACGGACTAA | 1.24 |
| GGTGATGACT | 1.01 |
| TGCGGTACTG | 1.08 |
| GTACTGCCTC | 1.08 |
| CAGAAGTGC | 1.1 |
| AAAGGTAAGC | 0.98 |
| GACAGTTTCG | 1 |
| TCCTCGCCGG | 1.11 |
| GTTCTACCCC | 1.12 |

| Sequence | switch fluorescence ratio |
| --- | --- |
| ATGTTGGAGC | 0.994 |
| AGTACTTAGT | 1.03 |
| CGAGGCCATA | 2.28 |
| TAAGCATGTC | 1.13 |
| CGAGGCTCTG | 1.02 |
| GGCTCAAG | 1.01 |
| AGGCGCGAAG | 1.02 |
| ATCCCTTACT | 1 |
| GTACTCGCAT | 1.34 |
| AAACAGTGGT | 1.02 |
| AACTCTAGG | 0.994 |
| GCAAAAGCGG | 0.971 |
| GGGTTGCGGG | 1.03 |
| GCGGGTAATA | 0.978 |
| CAAAAATCAC | 1.01 |
| TATTTAACAT | 0.994 |
| ACCTCTGGCG | 1.06 |
| ACCTGCACAT | 1.3 |
| GCGCGTTTCG | 0.942 |
